Results: paper PMC4336329 (PLoS ONE, 2015)
The whole screen tested about 310,000 compounds, of which about 2,200 (0.71%) showed an effect of 50% or more. The effect is printed as a negative number. The list shows a part of the results.

Biological target: human ether-à-go-go-related gene (hERG) potassium channel (human, UniProt Q12809)
Test: primary screen, population patch clamp on CHO cells stably expressing hERG

human ether-à-go-go-related gene (hERG) potassium channel, sequence (Q12809 whole entry, looked up): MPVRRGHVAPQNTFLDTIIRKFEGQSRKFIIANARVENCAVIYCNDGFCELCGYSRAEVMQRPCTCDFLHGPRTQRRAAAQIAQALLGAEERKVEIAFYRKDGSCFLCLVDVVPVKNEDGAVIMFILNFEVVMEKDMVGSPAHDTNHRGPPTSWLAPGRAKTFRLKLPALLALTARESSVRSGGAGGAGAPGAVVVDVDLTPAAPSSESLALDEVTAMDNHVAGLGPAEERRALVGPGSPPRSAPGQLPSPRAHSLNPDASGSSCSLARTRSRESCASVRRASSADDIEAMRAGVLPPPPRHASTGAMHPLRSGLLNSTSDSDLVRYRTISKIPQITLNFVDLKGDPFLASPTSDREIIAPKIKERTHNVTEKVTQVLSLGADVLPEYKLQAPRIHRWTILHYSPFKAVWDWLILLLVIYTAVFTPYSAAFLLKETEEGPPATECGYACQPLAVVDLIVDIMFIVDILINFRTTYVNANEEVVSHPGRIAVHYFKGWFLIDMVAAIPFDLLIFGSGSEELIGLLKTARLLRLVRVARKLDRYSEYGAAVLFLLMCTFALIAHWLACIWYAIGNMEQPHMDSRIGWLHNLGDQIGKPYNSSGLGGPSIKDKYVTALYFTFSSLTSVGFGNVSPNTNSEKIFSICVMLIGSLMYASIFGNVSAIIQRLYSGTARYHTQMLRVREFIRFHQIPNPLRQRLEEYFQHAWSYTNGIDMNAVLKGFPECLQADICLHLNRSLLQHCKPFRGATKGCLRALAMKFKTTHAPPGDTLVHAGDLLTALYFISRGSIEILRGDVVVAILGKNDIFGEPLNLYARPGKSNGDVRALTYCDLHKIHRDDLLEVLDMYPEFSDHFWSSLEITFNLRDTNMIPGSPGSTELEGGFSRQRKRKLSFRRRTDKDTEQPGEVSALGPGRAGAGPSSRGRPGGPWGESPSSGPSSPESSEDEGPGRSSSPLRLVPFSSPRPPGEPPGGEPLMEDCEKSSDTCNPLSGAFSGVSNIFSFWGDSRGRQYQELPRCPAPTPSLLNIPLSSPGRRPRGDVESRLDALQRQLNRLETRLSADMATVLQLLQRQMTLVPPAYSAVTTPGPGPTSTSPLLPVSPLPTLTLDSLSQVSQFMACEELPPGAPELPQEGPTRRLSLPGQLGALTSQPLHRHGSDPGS

SMILES	hERG current change (%, negative = inhibition) at 1uM [%]
Cc1ccc2cccc(SCC(=O)NCC#N)c2n1	11.3
CCOc1ccccc1NC(=O)C(OC(=O)C1CC1)c1ccccc1 (centres unmarked)	6.2
CCOC(=O)C1=C(C)N(C)C(=O)NC1c1cccc2ccccc12 (centres unmarked)	2.68
N#CC1=C(SCC(=O)c2ccc(Cl)cc2)NC2=C(C(=O)CCC2)C1c1ccco1 (centres unmarked)	2.99
CCCN1CN(CCc2ccccc2)CNC1=S	5.74
CC(=O)NCCc1nc2cc(NS(=O)(=O)c3ccc(Cl)cc3)ccc2n1C	10.8
CC(=O)c1cccc(CN2CCCC(C(=O)Nc3ccc(-c4ccco4)cc3)C2)c1 (centres unmarked)	14.3
O=C(CSc1nnc(C2CC2)n1Cc1ccccc1)c1cc2ccccc2o1	8.33
CCCOc1ccc(NC(=O)CC2Nc3ccccc3NC2=O)cc1 (centres unmarked)	14.9
O=[N+]([O-])c1cc2c(cc1/C=N/NS(=O)(=O)c1ccc(Br)cc1)OCO2	7.16
COC(=O)c1sccc1NC(=O)c1cc2c(s1)CCCC2	5.75
C=CCN1C(=O)c2ccc(C(=O)N(C)CC(=O)Nc3ccc(Br)cc3C)cc2C1=O	3.86
COc1ccc(C(=O)Nc2ccc(S(=O)(=O)Nc3nccnc3OC)cc2)cc1	3.99
CC(C)C(NS(=O)(=O)c1cccc2nsnc12)C(=O)Nc1nccs1 (centres unmarked)	-10.8
O=C(COC(=O)c1ccccn1)Nc1cccnc1Cl	11.2
CCc1cc(=O)n2[nH]c(-c3ccccc3)c(-c3ccccc3)c2n1	12.7
Cc1ccc(Cl)cc1N1CCN(Cc2nnnn2C2CCCCC2)CC1	14.2
COc1ccc(/C=C(\C#N)C(=O)Nc2cc(S(=O)(=O)N3CCOCC3)ccc2N2CCCC2)cc1	4.36
CCn1c(=O)c(C(=O)NCCc2ccc(OC)c(OC)c2)c(O)c2ccccc21	8.62

SMILES	hERG current change (%, negative = inhibition) at 1uM [%]
CC12CCC(C(=O)N/N=C/c3ccc(O)cc3)(OC1=O)C2(C)C (centres unmarked)	14.4
CC(=O)c1ccc(NS(=O)(=O)c2cc(-c3cnc(C4CC4)o3)ccc2C)cc1	13.6
Nc1nc(Cl)cc(=O)n1Cc1ccc(Cl)cc1	13.5
O=C(NC(=S)Nc1ccc2c(c1)OCCO2)c1ccco1	11.5
CCc1cc2cccc(C)c2nc1SCC(=O)Nc1cc(C)on1	17.9
O=C(CN1CCOCC1)NNC(=S)Nc1ccc(Cl)cc1	8.35
O=C(NNC(=O)c1ccc2ccccc2c1)Nc1ccc(F)cc1	4.14
CC(=O)Nc1c(O)nc(SCc2ccc(Cl)cc2)[nH]c1=O	13.2
O=C(Nc1c(O)c2ccccc2[nH]c1=O)c1ccco1	7.31
O=C(N/C(=C\c1cccs1)C(=O)N1CCOCC1)c1cccs1	6.69
Cc1occc1C(=O)N/N=C/c1ccc(-c2ccccc2)cc1	10.3
COCCC(=O)Nc1ccc2c(c1)CN(C(=O)CCSC)CC2	9.01
O=C(CCS(=O)(=O)c1ccc2c(c1)NC(=O)CS2)NCCc1ccc(Cl)cc1	10
CC(C)C(NC(=O)c1ccccc1Cl)C(=O)OCc1nc2scc(-c3ccccc3Cl)c2c(=O)[nH]1 (centres unmarked)	18.1
CCCNC(=O)Nc1ccc2c(c1)N(C)C(=O)c1ccccc1S2	-10.5
N#Cc1nc(-c2ccc(Cl)cc2)oc1NCC1CCCO1 (centres unmarked)	5.31
Cn1nc(C(=O)Nc2ccc(S(=O)(=O)N3CCOCC3)cc2)c2ccccc2c1=O	12
COc1ccc(NC2CCCN(C(=O)c3cccs3)C2)cc1 (centres unmarked)	12.5
CCOC(=O)c1c(NC(=O)C2C3CCC(O3)C2C(=O)O)sc2c1CCC(CC)C2 (centres unmarked)	-1.94

SMILES	hERG current change (%, negative = inhibition) at 1uM [%]
CCOC(=O)N1CCN(c2cc(=O)n(Cc3ccc(F)cc3)c(=O)[nH]2)CC1	-0.722
COc1ccc(CCn2c(=N)c(S(=O)(=O)c3ccc(C)cc3)cc3c(=O)n4ccccc4nc32)cc1	14.5
Cc1oc2cc(Br)c(O)c(Br)c2c1-c1ccccc1	-3.56
Cc1cc(C(=O)CSc2ncccn2)c(C)n1Cc1ccco1	12.3
COc1ccc2[nH]c(C)c(C(=O)CN3CCN(C/C=C/c4ccccc4)CC3)c2c1	5.17
O=C(O)COc1ccccc1/C=N/NC(=O)CSc1nc2ccccc2s1	11.7
NS(=O)(=O)c1ccc(Nc2nc(-c3ccc4ccccc4c3)cs2)cc1	-11.9
COc1ccccc1NS(=O)(=O)c1cccc(C(=O)N/N=C(\C)c2cccnc2)c1	2.47
CCCn1c(N)c(N(CCOC)C(=O)COC(=O)c2ccccc2NCCO)c(=O)[nH]c1=O	9.06
CC(Oc1ccc(-c2ccccc2)cc1)C(=O)N1CCOCC1 (centres unmarked)	12.2
C=CCNC(=S)Nc1ccc(N(C)C)cc1	-5.92
NS(=O)(=O)c1ccc(CNC(=O)CNC(=O)c2ccc(F)cc2)cc1	14.6
CCOC(=O)CNC(=O)c1ccc(C#CC2(O)CCCCC2)cc1	13.5
CCN(C(=O)CSc1nc(C)nc2sc(C)c(C)c12)c1ccc(F)cc1	7.21
CC(C)(C)C(=O)CNS(=O)(=O)c1ccc(S(=O)(=O)NC2CCCC2)cc1	7.1
COc1ccc(NC(=S)NC(C)Cc2cccs2)cc1 (centres unmarked)	14.4
O=C(c1ccccc1)c1nn(-c2ccccc2)c(=O)cc1C(F)(F)F	-3.08
CN(C)CCCN(C(=O)c1ccc(S(=O)(=O)N2CCc3ccccc32)cc1)c1nc2ccc(Cl)cc2s1.Cl	13.7
